Measured values reported in ChEMBL document CHEMBL4888484, “Replenishing the malaria drug discovery pipeline: Screening and hit evaluation of the MMV Hit Generation Library 1 (HGL1) against asexual blood stage Plasmodium falciparum ,using a nano luciferase reporter read-out” (2022).
The whole screen tested about 150,000 compounds, of which about 540 (0.36%) showed an effect of 50% or more. This is one part of the list.

tested on: Plasmodium falciparum; experiment: Primary screen in NF54 nanoGlo assay, in single point, at 2uM, 72h; a lower Z score goes with more inhibition; assay type: functional, Erythrocyte; details: timepoint 72 hour

Row | Compound | % Inhibition [%] | Z score
1 | Cc1ccccc1OCC(=O)NCC1(N2CCOCC2)CCCCC1 | 0 | -0.03
2 | CC(C)N(C)C(=O)C1CCN(C(=O)[C@@H](N)C(C)(C)C)CC1 | -1 | 0.1
3 | COc1ccc2c(c1)CN(C(=O)C1(C#N)CCCC1)CC2 | 0 | 0.03
4 | COc1ccc(C(=O)NS(=O)(=O)C2CCCCC2)cn1 | -7 | 1.1
5 | COCCC[C@H]1CCCCN1C(=O)c1ncoc1C1CC1 | -7 | 0.92
6 | Cn1ccc(C(=O)N2C3CCC2CC(F)C3)n1 (stereo not given) | -8 | 0.88
7 | CC[C@@H](C(=O)OC)N(C(=O)c1csnc1C)c1ccccc1 | 1 | -0.13
8 | O=C(c1cc(F)ccc1O)N(Cc1ccc(F)cc1)C1CCOCC1 | -2 | 0.38
9 | O=C(N1CCc2ccccc2C1)C1(c2ccccc2)CCOCC1 | -13 | 1.17
10 | O=C(NCc1cccnc1)[C@@H]1CCC(=O)N1C1CCN(C(=O)c2ccccc2F)CC1 | -17 | 1.85
11 | CCCCn1c(N)c(N(C(=O)c2nn(C)c(=O)c3ccccc23)C2CCCC2)c(=O)[nH]c1=O | -39 | 4.57
12 | O=C(N[C@H]1CCOC[C@@H]1OCC1CC1)c1ccccc1-c1ccccc1 | -2 | 0.34
13 | CCN(C(=O)c1ccc(F)cc1Br)[C@@H](C)CS(=O)(=O)CC | -8 | 1.49
14 | Cc1cnc(C2CCC2)n1CCNC(=O)Cc1ccccc1 | -1 | 0.19
15 | C=C(C)CNC(=O)Cc1c2c(n(Cc3ccc(F)cc3)c1C)CCCC2=O | -16 | 1.47
16 | Cc1cnccc1N1CCN(C[C@]2(O)CCCN(CC3CCCCC3)C2=O)CC1 | -8 | 0.91
17 | Cc1ccc2ccccc2c1NC(=O)NC[C@H]1CCCOC1 | -11 | 1.14
18 | CCN(CC)S(=O)(=O)c1ccc2c(c1)CCCN2C(=O)c1ccc2ccccc2c1 | 38 | -4.87
19 | Cc1csc(NC2CCN(C(=O)c3oc(CC4CC4)nc3C)CC2)n1 | -13 | 1.78
20 | CN(Cc1ccc(C#CCO)cc1)C[C@H]1CCCCN1C | 4 | -0.81
21 | Cc1ccc(OCC2CCN(C(=O)c3c[nH]cn3)CC2)nn1 | 3 | -0.37
22 | CC(C)n1nccc1-c1ccc(CN(C)C)cc1 | -15 | 1.47

Row | Compound | % Inhibition [%] | Z score
23 | Cn1c(=O)c2c(nc(CNC3CCCCCCC3)n2Cc2ccccc2)n(C)c1=O | -5 | 0.61
24 | CCOCC(=O)N1CCc2[nH]nc(C(=O)N3CCN(c4ccccc4C)CC3)c2C1 | 8 | -0.93
25 | CCC(=O)Nc1cc(C(=O)N[C@H]2CCCCNC2=O)c2c(c1)nc(Cc1ccccc1)n2C | 1 | -0.14
26 | CCC[C@H](C)C(=O)Nc1cccc(Cl)c1Cl | -19 | 3.72
27 | c1ccc(C(c2ccccc2)N2CCN(c3nn4cnnc4c4ccccc34)CC2)cc1 | 81 | -11.8
28 | CCc1noc(C)c1C(=O)OCC1CCC1 | -10 | 1.6
29 | COC(=O)C(C)(C)CCN1CCOC(C2CCCO2)C1 (stereo not given) | -9 | 1.15
30 | CCCCCOCC(=O)Nc1cn(C)nc1C | 19 | -2.44
31 | O=C1CC[C@@]2(CCCN(C(=O)c3c[nH]c(=O)[nH]3)C2)CN1CCc1ccccc1 | -6 | 0.99
32 | Cc1ccccc1CS(=O)(=O)N1CCCc2ccccc21 | -9 | 1.25
33 | O=C(Nc1nnc[nH]1)[C@@H]1COCC(=O)N1Cc1ccccc1 | -9 | 1.49
34 | O=C(Nc1cccnc1-n1cccn1)c1ccccc1 | 15 | -1.94
35 | Cc1ncn(Cc2nc(C3CCCC3)no2)c(=O)c1C | -11 | 1.7
36 | O=C(Nc1ccccc1)c1ccc(N(CCO)CC2CC2)nn1 | -6 | 1.27
37 | Cc1ccc(S(=O)(=O)c2c(C(=O)N3CCCC3)cnc3ccc(C)cc23)cc1 | -25 | 2.37
38 | N#CC1(NC(=O)c2nc(-c3cccc(C(F)(F)F)c3)cs2)CC1 | 5 | -0.58
39 | C[C@@H](NC(=O)N1CCN2C(=O)NCC2C1)c1ccc(Cl)cc1 (stereo not given in full) | -5 | 0.86
40 | CC(C)c1nnc(CON=C(N)c2cccc(Cl)c2)o1 | -13 | 1.12
41 | CO[C@@H](C(=O)N(C)CCN1CCCC1)c1ccccc1 | -11 | 2.28
42 | O=C(NCCc1noc(CO)n1)c1cncc(O)c1 | 0 | 0.01
43 | Cc1ccc(C(C)NC(=O)C2CC3CCC2O3)cc1F (stereo not given) | 0 | -0.03
44 | COC(=O)c1cc(OC(F)(F)F)ccc1N | -8 | 1.16

Row | Compound | % Inhibition [%] | Z score
45 | O=S(=O)(Cc1ccccc1)NC[C@H]1Cn2c(-c3ccc(Cl)cc3)cnc2CO1 | 31 | -3.59
46 | Cc1cccc(CN(Cc2ccccn2)C(=O)Nc2nnc(C(C)C)s2)c1 | -18 | 2.07
47 | COc1ccc(C(=O)C(c2cn(C)c3ccccc23)c2cn(C)c3ccccc23)cc1 | -1 | 0.16
48 | COc1cccc(NC(=O)Cc2nnc3ccc(-c4nc(C)no4)cn23)c1 | -8 | 1.32
49 | CCc1noc(C)c1CNc1cccc(C(=O)O)n1 | 0 | 0.06
50 | CCCN1CCN(C(=O)c2cc(C)n[nH]2)[C@H]2CS(=O)(=O)C[C@H]21 | -14 | 2.31
51 | CCCc1[nH]ncc1C(=O)NCCN1C(=O)Cc2ccccc21 | -12 | 2.22
52 | COc1cc(=O)n2c(c1C(=O)NCCCn1ccnc1)CCNCC2 | 5 | -0.7
53 | Cc1ncsc1C(=O)Nc1ccnc(Oc2ccc(F)cc2F)c1 | -1 | 0.1
54 | CN(C(=O)[C@H]1CCO[C@@H]1c1cccnc1)c1ccn(C)n1 | -7 | 1.42
55 | CCOc1ccc(C(=O)N2C[C@@H](CO)C[C@@H](CN3CCOCC3)C2)o1 | -16 | 3.18
56 | COc1ccc(CC(=O)N[C@@]2(C#N)CCc3ccccc3C2)cc1OC(F)F | -2 | 0.31
57 | N#Cc1c(N(C(=O)c2ccccc2C(F)(F)F)C(=O)c2ccccc2C(F)(F)F)oc(-c2ccco2)c1-c1ccco1 | 16 | -1.85
58 | Cc1nn(C)c(C)c1CN(C)c1nc2c(s1)c(C)nn2C | -7 | 0.89
59 | CCc1ccc(CNC(=O)c2noc(-c3ccc(C)cc3)n2)cc1 | -8 | 0.7
60 | CCn1ccnc(Oc2ccc(-n3ncc4ccccc43)cc2)c1=O | -5 | 0.91
61 | C[C@@H](c1ccccc1)N(C(=O)c1cnn(C2CCC2)c1)c1ccccn1 | -2 | 0.38
62 | CN(CCN1C(=O)NC(C)(C)C1=O)C1Cc2ccccc2C1 | -2 | 0.39
63 | Cc1nc([C@H](C)NC(=O)c2cnc(C3CC3)nc2)cs1 | -5 | 0.55
64 | O=C1NC2(CCCC2)C(=O)N1CCOc1cccc(Cl)c1 | -5 | 0.85
65 | Cc1ccc(-c2nc(CC(N)=O)n[nH]2)n1C(F)F | -16 | 1.87
66 | C[C@@H]1CN(C(=O)NCC2CCCCC2)CC[C@]1(C)O | -7 | 1.22

Row | Compound | % Inhibition [%] | Z score
67 | Cc1nc(-c2ccc(N3CC(C(N)=O)CCC3C)nc2)[nH]c(=O)c1C (stereo not given) | -6 | 1.05
68 | COc1cccc2c(C(=O)N3COCC[C@H]3c3ccccc3)cnn12 | 2 | -0.46
69 | CCN(CCn1cccn1)CC(=O)Nc1ccn(C)n1 | -12 | 2.28
70 | C[C@H]1CN(c2cc(NCCO)ncn2)CC(=O)N1C | -8 | 0.98
71 | Cc1ccc([C@H](C(=O)Nc2ccc(C(=O)N3CCCC3)cc2C)N(C)C)cc1 | -17 | 2.13
72 | CC(=O)Nc1c(-c2ccc(F)cc2)c(C)nn1-c1ccc(C(=O)NCc2ccco2)cc1 | 3 | -0.32
73 | CC(=O)NC1CCN(c2cc(C)c3cc4c(cc3n2)CCC4)CC1 | 24 | -3.1
74 | Cc1ccc(N2CCCN(Cc3cccc(Cl)c3)C2=O)c(NC(=O)Cc2ccc(F)cc2)c1 | -6 | 0.81
75 | CC(C)c1oncc1NC(=O)[C@@H]1CCCc2c(O)cccc21 | -8 | 1.28
76 | CN(CC#CCNC(=O)CN(C)S(C)(=O)=O)Cc1ccccc1 | 7 | -0.76
77 | CCN(c1cccnc1)S(=O)(=O)c1cc(Cl)cnc1N | -7 | 0.9
78 | Cc1n[nH]c(N2CCN(S(=O)(=O)c3c(C)cccc3F)CC2)n1 | -10 | 1.33
79 | O=C(c1cccc(C(F)(F)F)c1)N1CCC[C@@](CO)(CCc2ccccc2)C1 | -4 | 0.49
80 | CN1CCC[C@@H]1COc1ncc(C#N)cc1Cl | 8 | -1.07
81 | Cc1cc(C)n(-c2cc(N3CC(C(=O)Nc4onc5c4CCCC5)C3)ncn2)n1 | 14 | -1.85
82 | COc1cc(CNc2ccc(-c3cnc(C4CC4)o3)cc2)ccc1O | 6 | -0.59
83 | COc1cccc(CN(CCS(=O)(=O)N2CCNCC2)S(=O)(=O)c2cccs2)c1 | -12 | 1.38
84 | O=S(=O)(CC1CCCC1)NCc1nnc2n1CCCC2 | 0 | -0.02
85 | Cc1ccc(OC[C@H]2c3ccsc3CCN2C(=O)CN(CC(C)C)S(=O)(=O)c2ccc(C)cc2)cc1 | -11 | 1.48
